# Assays:
# Assay type in all cases: cell-based, human
# [1] = tested on: HDM specific T-cell lines from HDM allergic donors; assay: T cell reactivity of protein: IL-5/IFNg FluoroSPOT or 72 h T cell proliferation in HDM specific T-cell lines (Example 2); settings: responding donors of tested HDM allergic donors
# From the text: PBMCs from European HDM-allergic individuals were recruited in the Copenhagen region (defined by clinical history of allergy to house dust mite and specific IgE to group 1 and group 2 major allergens from Der p and/or Der f and with measured specific IgE (CAP) >0.7 kU/L towards Der p/f 1 or Der p/f 2. In addition, PBMCs from 10 US HDM-allergic individuals were recruited in San Diego (defined by Der p extract IgE titers greater than 0.35 kUA/L). PBMCs were isolated from whole blood by density gradient centrifugation according to manufacturers' instructions (Ficoll-Hypaque, Amersham Biosciences, Uppsala, Sweden). Der p- and Der f-specific extract IgE titers were determined using the ImmunoCAP system (Thermo Fisher, Uppsala, Sweden). […]
# T cells reactivity was determined by establishment of HDM specific T-cell lines according to standard methods. […] The responses to proteins having SEQ ID NOs 1-44 were assessed by IL-5/IFNg FluoroSPOT (Mabtech FS-0108-10) according manufacturer protocol, (after 2 weeks) or proliferation in a standard 72 h T cell proliferation assay, as described in Henmar H et al., Clin Exp Immunol 2008; 153(3):316-23. […]
# [2] = tested on: basophils in whole blood from HDM allergic donors; assay: Basophil Activation Test (BAT); settings: blood from HDM allergic individuals (n=14)
# Method: Basophil Activation Test (BAT) was used as a predictive in vitro assay for indication of safety/immediate hypersensitivity reactions. The BAT assay is a widely used diagnostic test that is also used for evaluation of allergenicity of allergen derived components. In short: whole blood from HDM allergic donors was stimulated for 1 h with the proteins, and the increased expression of activation markers on the surface of basophils were measured by flow cytometry. The BAT test was carried out using different concentrations of the proteins and the allergens Der p 2 and Der p 1 was used as controls and tested in the same concentration rates.
# (§1) This example relates to the further testing of immunogenicity of the proteins identified in Example 1. Their ability to react with IgE antibodies in HDM allergic individuals, to stimulate in vitro T cell proliferation of HDM allergic individuals and non-allergics, and to stimulate ex vivo cytokine production of HDM allergic individuals and non-allergics. The following tests were used: • Basophil Activation Test (BAT) was used as a predictive in vitro assay for indication of safety/immediate hypersensitivity reactions. BAT test was carried out using blood from HDM allergic individuals (n=14), and by use of different concentrations of test proteins or the major house dust mite allergens (Der p 1, Der f 1, Der p 2 or Der f 2, e.g. a concentration of 1, 10, 100 or 1000 ng/ml. • In vitro T cell reactivity determined in T cell lines obtained from HDM allergic individuals (n=30) and non-allergics (n=8): Determined by establishment of HDM specific T-cell lines according to standard methods. In short, PMBCs from HDM allergic donors were cultured for 3 weeks in the presence of house dust mite allergen extract. The responses to proteins at a concentration of 0.5 ug/ml or 2 ug/ml of the test protein or the major house dust mite allergens (Der p 1, Der f 1, Der p 2 or Der f 2) were assessed by proliferation in a standard 72 h T cell proliferation assay, as described in Henmar H et al., Clin Exp Immunol 2008; 153(3):316-23. […]. • Ex vivo stimulation of PBMC cells obtained from mite allergic patients (n=16) and non-allergics (n=6): Determined by measuring the production of the cytokines; IFN-gamma, IL-9, IL-10, IL-17 and IL-31 following stimulation with test protein in concentration up to 10 ug/ml. Freshly isolated PBMC 5×10^6/ml were cultured with a test protein for 5 days and cell supernatant were harvested and stored at −80° C. Cytokines of the supernatants were measured using ProcartaPlex Multiplex Immunoassays with MAGPIX Multiplex Reader according manufactory protocol.
# [3] = tested on: T cell lines obtained from HDM allergic individuals and non-allergics; assay: In vitro T cell proliferation test in T cell lines (Example 3); settings: 0.5 or 2 ug/ml, 72 h
# From the text: This example relates to the further testing of immunogenicity of the proteins identified in Example 1. Their ability to react with IgE antibodies in HDM allergic individuals, to stimulate in vitro T cell proliferation of HDM allergic individuals and non-allergics, and to stimulate ex vivo cytokine production of HDM allergic individuals and non-allergics. The following tests were used: • Basophil Activation Test (BAT) was used as a predictive in vitro assay for indication of safety/immediate hypersensitivity reactions. […] T cell reactivity was. • Ex vivo stimulation of PBMC cells obtained from mite allergic patients (n=16) and non-allergics (n=6): Determined by measuring the production of the cytokines; IFN-gamma, IL-9, IL-10, IL-17 and IL-31 following stimulation with test protein in concentration up to 10 ug/ml. […] Cytokines of the supernatants were measured using ProcartaPlex Multiplex Immunoassays with MAGPIX Multiplex Reader according manufactory protocol.
# [4] = tested on: PBMC cells obtained from mite allergic patients and non-allergics; assay: Ex vivo stimulation of PBMC: cytokine production (IFN-gamma, IL-9, IL-10, IL-17, IL-31)
# From the text: as §1
molecule,measurement,setting,value
"27 (protein, listed as Dermatophagoides pteronyssinus) SPTGWNIRTFEQFKIQFNKHYDSIEQEEHARENFLETLKYVDANPDKAVINEFADLSAEEFADGYLMSEESMQDSEQQLKLLRAGYDYHDDPECLFDENLEAPKQVDLRPDLSPIMRQTLHCGCCWAISPISSAESAYKARYNVSIQLSVQELVNCAVEHGCEIGKTAIAFNYLVTNGTTTQKAYPYTAKEGACNPPEKPRYTLENWCAYIDPSIKNKNKPDLRKVLAQKRTSITVQISIKNVKAFAHHNGSFIIRENSFPDEGKPSGHAINIVGYGTKDGVDYWIVRNSWSTGWGDKGYFYVERGVNWWGIEEYAFIATF",% T cell responding donors to protein,[1],1 of 24
"A015: house dust mite protein; SEQ ID NO: 26 (Der f), 27 (Der p), 312 (Blo t) (protein) SPTGWNIRTFEQFKIQFNKHYDSIEQEEHARENFLETLKYVDANPDKAVINEFADLSAEEFADGYLMSEESMQDSEQQLKLLRAGYDYHDDPECLFDENLEAPKQVDLRPDLSPIMRQTLHCGCCWAISPISSAESAYKARYNVSIQLSVQELVNCAVEHGCEIGKTAIAFNYLVTNGTTTQKAYPYTAKEGACNPPEKPRYTLENWCAYIDPSIKNKNKPDLRKVLAQKRTSITVQISIKNVKAFAHHNGSFIIRENSFPDEGKPSGHAINIVGYGTKDGVDYWIVRNSWSTGWGDKGYFYVERGVNWWGIEEYAFIATF",# of individuals of 14 with positive BAT test,[2]; 1 ng/ml,0
same,# of individuals of 14 with positive BAT test,[2]; 10 ng/ml,0
same,# of individuals of 14 with positive BAT test,[2]; 100 ng/ml,0
same,# of individuals of 14 with positive BAT test,[2]; 1000 ng/ml,0
same,"% responders of in-vitro T cell proliferation test, Allergic",[3]; T cell lines from HDM allergic individuals (n=30),4%
same,"% responders of in-vitro T cell proliferation test, Non-allergics",[3]; T cell lines from non-allergics (n=8),0%
same,% HDM allergic individuals with cytokine production in ex-vivo T cell assay IL-5,"[4]; HDM allergic individuals, IL-5",6%
same,% HDM allergic individuals with cytokine production in ex-vivo T cell assay IL-9,"[4]; HDM allergic individuals, IL-9",0%
same,% HDM allergic individuals with cytokine production in ex-vivo T cell assay IL-10,"[4]; HDM allergic individuals, IL-10",75%
same,% HDM allergic individuals with cytokine production in ex-vivo T cell assay IL-13,"[4]; HDM allergic individuals, IL-13",6%
same,% HDM allergic individuals with cytokine production in ex-vivo T cell assay IL-17,"[4]; HDM allergic individuals, IL-17",44%
same,% HDM allergic individuals with cytokine production in ex-vivo T cell assay IL-31,"[4]; HDM allergic individuals, IL-31",6%
same,% HDM allergic individuals with cytokine production in ex-vivo T cell assay INF-g,"[4]; HDM allergic individuals, INF-g",25%
same,% non-allergic individuals with cytokine production in ex-vivo T cell assay IL-5,"[4]; non-allergic individuals, IL-5",0%
same,% non-allergic individuals with cytokine production in ex-vivo T cell assay IL-9,"[4]; non-allergic individuals, IL-9",0%
same,% non-allergic individuals with cytokine production in ex-vivo T cell assay IL-10,"[4]; non-allergic individuals, IL-10",67%
same,% non-allergic individuals with cytokine production in ex-vivo T cell assay IL-13,"[4]; non-allergic individuals, IL-13",0%
same,% non-allergic individuals with cytokine production in ex-vivo T cell assay IL-17,"[4]; non-allergic individuals, IL-17",50%
same,% non-allergic individuals with cytokine production in ex-vivo T cell assay IL-31,"[4]; non-allergic individuals, IL-31",0%
same,% non-allergic individuals with cytokine production in ex-vivo T cell assay INF-g,"[4]; non-allergic individuals, INF-g",33%
